Data: PubChem BioAssay AID1745853 (National Center for Advancing Translational Sciences (NCATS), 2022)
Some of the results follow. Further columns of the screen follow, without active or inactive calls.

How the values were obtained:
Assay in all cases: Primary Screen for Target Class Profiling of Small Molecule Inhibitors of Methyltransferases
[1] = target: Glycine N-methyltransferase (Homo sapiens) (UniProt Q14749); settings: purified enzyme, MTase-Glo SAH luminescence; measured here: GNMT inhibition; at 40 µM; stronger effect = lower value
How it was run: (§1)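 Each enzyme was reacted with SAM and its substrate, with compounds tested once at 40 uM; SAH formed was read by MTase-Glo luminescence.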

[2] = target: Guanidinoacetate N-methyltransferase (Homo sapiens) (UniProt Q14353); settings: purified enzyme, MTase-Glo SAH luminescence; measured here: GAMT inhibition; at 40 µM; stronger effect = lower value
How it was run: as §1

[3] = target: Histamine N-methyltransferase (Homo sapiens) (UniProt P50135); settings: purified enzyme, MTase-Glo SAH luminescence; measured here: HNMT inhibition; at 40 µM; stronger effect = lower value
How it was run: as §1

[4] = target: Nicotinamide N-methyltransferase (Homo sapiens) (UniProt P40261); settings: purified enzyme, MTase-Glo SAH luminescence; measured here: NNMT inhibition; at 40 µM; stronger effect = lower value
How it was run: as §1

[5] = target: Phenylethanolamine N-methyltransferase (Homo sapiens) (UniProt P11086); settings: purified enzyme, MTase-Glo SAH luminescence; measured here: PNMT inhibition; at 40 µM; stronger effect = lower value
How it was run: as §1
On the % scale 0 is the no-effect control and ±100 the full control effect.

Row | SMILES | activity change, negative = inhibition [1] | activity change, negative = inhibition [2] | activity change, negative = inhibition [3] | activity change, negative = inhibition [4] | activity change, negative = inhibition [5]
1 | CC(C)CNC(=O)N1CCn2cccc2C1C (configuration not stated) | 5.38% | 2.6% | 10.5% | 8.81% | 8.95%
2 | Clc1ccc(C(c2ccc(Cl)cc2)n2cc[n+](CC(OCc3ccc(Cl)cc3Cl)c3ccc(Cl)cc3Cl)c2)cc1 (configuration not stated) | -16.4% | 9.94% | -70.6% | -49.7% | -2.08%
3 | COc1ccc(NC(=O)[C@@H]2C[C@H](c3ccc(F)cc3)N(Cc3ccccc3Cl)C2)cn1 | -3.31% | -0.168% | 0.525% | -7.45% | -2.88%
4 | COc1ccc(-c2n[nH]n3c2nc(=O)c2ccc(C(=O)NCCC(C)C)cc23)cc1 | 1.57% | 1.15% | 8.12% | 5.1% | -2.93%
5 | CC(=O)OC1C(OC(=O)c2ccccc2)C2C(C)(C)CCC(OC(C)=O)C2(C)C23CCC(C)(C2)C(=O)CC13 (configuration not stated) | 4.25% | 3.04% | 4.04% | -13% | 3.02%
6 | COc1ccccc1C(=O)N1CCCN(c2nnc3ccccn23)CC1 | -1.68% | -2.47% | -1.23% | -5.08% | 0.051%
7 | COc1ccc(-c2cc3n(n2)CC(C)(C(=O)NCc2ccccc2)N(Cc2cccc(OC)c2)C3=O)cc1 (configuration not stated) | 2.6% | 2.87% | 7.15% | 0.464% | 0.06%
8 | CN1C(=O)c2cc3ccccc3n2CC1(C)C(=O)NCC(=O)NCCc1cccs1 (configuration not stated) | 1.49% | 0% | 11.4% | 1.99% | 5.18%
9 | COc1ccc(OCC(=O)N2CCN(c3cc(-c4ccccc4)[nH]n3)CC2)cc1 | -10.7% | -13.5% | -4.11% | -9.38% | -5.18%
10 | CCCN1C(=O)c2cc3occc3n2CC1(C(=O)NC1CCCCCCC1)c1ccccc1 (configuration not stated) | 0.798% | 3.64% | -5.17% | -4.25% | -4.62%
11 | CCCN1C(=O)c2c(C(=O)NCc3cccc(F)c3)ncn2CC1(C)C(=O)NCCC(C)C (configuration not stated) | -2.02% | 2.27% | -4.05% | 2.05% | 3.91%
12 | COc1ccc2cc3n(c2c1)CC(C)(C(=O)NC1CCCCC1)N(c1ccc(OC)c(OC)c1)C3=O (configuration not stated) | 3.54% | 2.28% | 8.46% | 9.09% | 3.11%
13 | COC(=O)C[C@H]1C(C)(C)[C@H](OC(=O)C(C)C)C2CC3=C4CC(=O)O[C@@H](c5ccoc5)[C@]4(C)CCC3[C@@]1(C)C2=O (some centres not stated) | 3.01% | 2.76% | 8.3% | -8.32% | -5.8%
14 | O=C(O)CC1CC(c2ccccc2)=NO1 (configuration not stated) | -3.33% | -3.38% | 1.16% | -15.7% | -2.95%
15 | COc1ccccc1CNC(=O)C1c2c(n(C)c3ccccc23)SCC(=O)N1c1cccc(Cl)c1 (configuration not stated) | 10.6% | 0.794% | 2.41% | -3.41% | 4.34%
16 | C=C1C(O)CCC2(C)CC3(OC)OC(=O)C(C)=C3CC12 (configuration not stated) | 2.61% | 8.47% | 8.13% | -5.3% | 6.91%
17 | COc1ccc(OC)c(S(=O)(=O)N2CCCC3(CC2)CNC(=O)O3)c1 (configuration not stated) | 0.255% | 0% | 3.19% | 1.96% | 4.87%
18 | CC1CCC(NC(=O)C2(C)Cc3ccccc3C(=O)N2Cc2ccc(Cl)cc2)CC1 (configuration not stated) | -6.08% | 6.97% | 1.64% | -3.1% | -3.19%
19 | CC1=C(C)C(=O)OC(C(C)C2C(O)CC3C4C5OC5C5(O)CC(OC6OC(CO)C(OC7OC(C)C(O)C(O)C7O)C(O)C6O)CC(O)C5(C)C4CCC32C)C1 (configuration not stated) | -3.29% | -7.52% | 7.21% | -19.2% | -11.1%
20 | O=C1CCC(CNS(=O)(=O)c2cccnc2)CCN1Cc1ccccc1 (configuration not stated) | -1.22% | -0.904% | 0.198% | -5.4% | 1.41%
21 | CC(C)CCn1c(=O)c2ccc(C(=O)NC(C)C)cc2n2c(=O)n(CC(=O)NC(C)C)nc12 | -1.38% | 3.98% | -1.64% | -6.32% | -0.462%
22 | CS(=O)(=O)N1C[C@@H]2OCC(=O)N(Cc3ccncc3)[C@@H]2C1 | -4.58% | -5.78% | -2.88% | -10.5% | -4.14%
23 | CN(CC1CCOC1)S(=O)(=O)Cc1cccc(Cl)c1 (configuration not stated) | -5.01% | -8.31% | -4.59% | -10.4% | -9.93%
24 | COc1ccc(NC(=O)N2Cc3c(sc4c3CCCC4)-n3cccc3C2c2cccc(OC)c2)cc1 (configuration not stated) | 1.15% | 0% | 4.98% | 2.02% | 4.79%
25 | COc1ccc(C(=O)Cn2nc3n(Cc4ccc(F)cc4)c(=O)c4ccccc4n3c2=O)cc1 | 2.67% | 0% | 5.07% | 4.35% | 2.74%
26 | O=C(COc1ccc2c(-c3ccccc3)cc(=O)oc2c1)c1ccccc1 | -2.79% | 3.71% | -2.99% | -10.2% | -10.6%
27 | CCOc1ccccc1OCCNC(C)Cc1ccc(OC)c(S(N)(=O)=O)c1 (configuration not stated) | -4.01% | – | -2.73% | – | –
28 | O=C(Cn1ccc2cc(S(=O)(=O)N3CCCCC3)ccc21)NCc1ccc(F)cc1 | 5.67% | 2.43% | 2.37% | 2.67% | 0.25%
29 | COc1cc2c(cc1O)C(c1ccc(O)cc1)C(C)C(C)C2 (configuration not stated) | -24.6% | -11% | -27.7% | -31.3% | -18.9%
